Experimental data taken from PubChem BioAssay AID1030 (National Center for Advancing Translational Sciences (NCATS), 2008).
In all, about 220,000 compounds went through this assay and about 16,000 (7.3%) were called active. Inconclusive means that the source gave no clear call. Such entries were picked first, then a sample of the others. The call rests on the fitted dose curve; in most records, active means well fitted inhibition curve with a large enough effect (not every such curve was filed as active); inconclusive means small, poorly fitted or top-dose-only effect, or another doubt; inactive means no such curve, though single readings can be large or run the other way. No potency is given beside an inconclusive call; the fits are too rough.

Molecular target: Aldehyde dehydrogenase 1A1 (Homo sapiens) (UniProt P00352)
Assay: qHTS Assay for Inhibitors of Aldehyde Dehydrogenase 1 (ALDH1A1);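 on activity, negative = inhibition: plate controls were no enzyme wells and a reference inhibitor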
Conditions: Purified ALDH1A1, NADH fluorescence, propionaldehyde substrate; series mostly up to 75.3 µM
Potency means the concentration at half of the fitted maximal effect; tags describe the fitted curve by direction and shape.

Sequence of UniProt P00352 (P00352 whole entry, looked up): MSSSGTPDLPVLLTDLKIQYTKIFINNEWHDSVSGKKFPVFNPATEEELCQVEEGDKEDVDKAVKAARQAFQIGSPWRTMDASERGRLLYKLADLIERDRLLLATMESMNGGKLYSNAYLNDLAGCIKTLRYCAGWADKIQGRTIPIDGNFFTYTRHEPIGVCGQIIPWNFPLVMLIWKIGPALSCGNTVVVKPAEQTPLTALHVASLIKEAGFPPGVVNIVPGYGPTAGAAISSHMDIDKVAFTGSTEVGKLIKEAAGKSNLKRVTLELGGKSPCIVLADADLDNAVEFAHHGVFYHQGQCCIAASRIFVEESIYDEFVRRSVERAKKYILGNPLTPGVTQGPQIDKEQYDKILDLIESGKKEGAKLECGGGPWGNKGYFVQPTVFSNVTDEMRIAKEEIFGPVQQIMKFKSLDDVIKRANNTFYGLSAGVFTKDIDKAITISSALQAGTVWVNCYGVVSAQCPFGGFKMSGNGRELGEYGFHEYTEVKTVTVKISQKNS

Compound | Potency | activity, negative = inhibition
O=C1C=C(NCc2ccc(Cl)cc2Cl)C2(CCCCC2)O1 | inconclusive [inhibitor, single point] | 
O=S(=O)(c1ccc(-c2nnc(SCc3ccccc3)o2)cc1)N1CCCC1 | inactive | 
CCOC(=O)N1CCC(NC(=O)c2cccc3c2C(=O)N(CCOC)C3)CC1 | inconclusive [inhibitor, single point] | 
Oc1ccc2ccccc2c1CN1CCN(c2ccccc2)CC1 | inconclusive [inhibitor, single point] | 
O=C(Nc1ccccc1)c1ccc2nsnc2c1 | inconclusive [inhibitor, single point] | 
CCc1nccn1Cc1cc(C=O)ccc1OC | inconclusive [inhibitor, single point] | 
COc1ccc(C2C(C#N)=C(N)Oc3n[nH]c(C)c32)cc1Cn1nnc2ccccc21 (stereo not given) | inconclusive [inhibitor, single point] | 
COC(=O)c1sc(N)c(C(=O)OC)c1COC(=O)CNS(=O)(=O)c1ccc(C)c(C)c1 | inconclusive [inhibitor, partial curve] | 
CCCNC(=O)c1ccc2c(c1)ncn2-c1ccccc1OC | inactive | 
N#C/C(=C\c1ccccc1OCc1ccc(C(=O)O)cc1)C(=O)Nc1ccc(O)cc1 | active: 5.62 µM | 
COc1cccc(/C(O)=C/C(=O)C(=O)Nc2ccc(S(=O)(=O)NC(C)=O)cc2)c1 | inconclusive [inhibitor, single point] | 
CC1CC2=C(NC(=S)NC2c2ccc(F)cc2)/C(=C/c2ccc(F)cc2)C1 (stereo not given) | active: 3.55 µM | 
CC(C)(C)c1ccc(C(=O)NCC(=O)OCC(=O)Nc2ccc3c(c2)OCCO3)cc1 | inconclusive [inhibitor, single point] | 
COc1cc(/C=C/C(=O)OCC(=O)NC2CC2)cc(S(=O)(=O)N2CCc3ccccc32)c1OC | inconclusive [inhibitor, single point] | 
Cc1c(NC(=O)CSCc2ccc(Br)cc2)c(=O)n(-c2ccccc2)n1C | inactive | 
CC(=O)N[C@@H](CSC/C=C(\C)CC/C=C(\C)CC/C=C(\C)CCC=C(C)C)C(=O)O | inactive | 
COc1ccc(OC)c(-n2nnnc2SCC(=O)N2CCN(C(=O)c3ccco3)CC2)c1 | inconclusive [inhibitor, single point] | 
COc1ccc(C(=O)COC(=O)CN2C(=O)C3C4C=CC(C4)C3C2=O)cc1 (stereo not given) | inconclusive [inhibitor, partial curve] | 
O=C(N/N=C/C=C\c1ccccc1[N+](=O)[O-])c1ccncc1 | inconclusive [inhibitor, single point] | 
CC(C)(C)c1ccc(S(=O)(=O)CC(O)CSc2nc3c(cc2C#N)CCCC3)cc1 (stereo not given) | active: 2 µM | 
C=CCn1c(SCC(=O)N2CCN(c3ccc(F)cc3)CC2)nnc1-c1cccs1 | inconclusive [inhibitor, single point] | 
CCNc1ncc2nc(-c3ccc(OC)cc3)c(=O)n(Cc3ccc(F)cc3)c2n1 | inconclusive [inhibitor, partial curve] | 
O=c1c2ccccc2nnn1CSc1nnc(-c2cccnc2)n1-c1ccccc1F | inconclusive [inhibitor, partial curve] | 
Cc1nn(C)cc1/C=C(/C#N)C(N)=O | inactive | 

Compound | Potency | activity, negative = inhibition
Cc1cc(S(=O)(=O)N(Cc2ccccc2Cl)c2ccc3c(c2)CCC3)ccc1-n1cnnn1 | active: 5.01 µM | 
CCOC(=O)Cc1ncccc1C(=O)Nc1ccc(OC)cc1 | inactive | 
Cc1cc2c(cc1C)[n+](C)cn2CC(O)COCc1ccccc1 (stereo not given) | inactive | 
CCC(NC(=O)COc1ccc([N+](=O)[O-])cc1)c1ccccc1 (stereo not given) | inconclusive [inhibitor, single point] | 
CCOP(=O)(OCC)C(NC(=O)c1cc([N+](=O)[O-])cc([N+](=O)[O-])c1)C(F)(F)F (stereo not given) | inconclusive [inhibitor, single point] | 
COC(=O)c1cc(=O)[nH]c(SCc2cccc(C)c2)n1 | inactive | 
CC(C)C(=O)NC(NC(=O)C(C)C)c1ccc([N+](=O)[O-])cc1 | inactive | 
CCOC(=O)c1ccccc1NS(=O)(=O)c1ccc(OC)cc1 | inconclusive [inhibitor, single point] | 
O=C(CCNNC(=O)c1ccncc1)NCc1ccccc1 | inactive | 
CN(C)c1ccc(NC(=O)CCCc2ccccc2)cc1 | inconclusive [inhibitor, single point] | 
COc1ccc(CNC(=O)NC(C)(C)c2cccc(C(C)(C)NC(=O)NCc3ccc(OC)cc3)c2)cc1 | inactive | 
O=[N+]([O-])c1cccnc1N1CCC(c2cc(-c3ccc(Cl)cc3Cl)n[nH]2)CC1 | inactive | 
CCOC(=O)c1sc(NS(=O)(=O)c2ccc(C)cc2)nc1C | inconclusive [inhibitor, partial curve] | 
COc1ccc(C(=O)/C(C#N)=N/Nc2cccc([N+](=O)[O-])c2)cc1 | inconclusive [inhibitor, single point] | 
O/N=C1\CCC\C1=C/c1ccco1 | inactive | 
CN(C)CCN(C(=O)c1ccccc1Cl)c1nc2c(Cl)cccc2s1 | active: 31.6 µM | 
COc1ccc(N(CC(=O)Nc2cc(C)ccc2C)S(=O)(=O)c2ccccc2[N+](=O)[O-])c(OC)c1 | inactive | 
Cc1cccnc1NC(=O)C12CCC(C)(C(=O)O1)C2(C)C (stereo not given) | inconclusive [inhibitor, single point] | 
COc1ccc(C(=O)c2ccc(N(C)C)cc2)c(OC)c1 | inactive | 
COc1cc2c(C)c3c4c(cc(OC)c(OC)c4c2cc1OC)CCN3C | inconclusive [inhibitor, partial curve] | 
COc1ccc(CN2CCNC(=O)C2CC(=O)N(C)Cc2nccn2C)cc1OC (stereo not given) | inactive | 
Cc1ccc(S(=O)(=O)N2CCc3nc(-c4ccccc4)c4c(c3C2)CO[C@@H](C)C4)cc1 |  | inactive: 24.3% [at 13.5 µM]
CC1CN(C(=O)c2ccc(C(=O)c3ccccc3)cc2)CC(C)O1 (stereo not given) | inconclusive [inhibitor, single point] | 
CCc1ccc(C(=O)CSc2nc(C)cc(=O)[nH]2)cc1 | inconclusive [inhibitor, single point] | 

Compound | Potency | activity, negative = inhibition
CC1CC(=O)c2cnc(Nc3ccccc3)nc2C1 (stereo not given) | inconclusive [inhibitor, partial curve] | 
COc1cccc(C(=O)N2CCN(Cc3ccccc3[N+](=O)[O-])CC2)c1 | inconclusive [inhibitor, single point] | 
CCn1c(=O)c(=O)[nH]c2cc(C(=O)NC3CC3)ccc21 | inconclusive [inhibitor, single point] | 
COc1cccc(/C=C/C(=O)Nc2ccc3c(c2)OCCO3)c1 | inactive | 
O=C(NCc1ccccc1)C1CCCN(c2nc3ccsc3c(=O)s2)C1 (stereo not given) | inconclusive [inhibitor, single point] | 
Cc1cc(C)c(C)c(OCCCOc2cccc3cccnc23)c1 | inconclusive [inhibitor, single point] | 
O=c1[nH]c2cc3c(cc2cc1CN(Cc1ccc2c(c1)OCO2)Cc1nnnn1CC1CCCO1)OCO3 (stereo not given) | inconclusive [inhibitor, partial curve] | 
CC1=NN(C(=O)CCc2ccccc2)C(O)(c2ccncc2)C1 (stereo not given) | inactive | 
Cc1onc(-c2ccccc2Cl)c1C(=O)Nc1ccc(CN2CCCC2)cc1 | inactive | 
Cc1cccc(N2CCN(C(=O)c3ccc4nc(-c5ccco5)c(-c5ccco5)nc4c3)CC2C)c1 (stereo not given) | inconclusive [inhibitor, single point] | 
COc1ccc(-c2nnnn2C)cc1S(=O)(=O)NCc1ccccc1 | inconclusive [inhibitor, single point] | 
COc1ccccc1CN1CC(C(=O)N2CCN(c3ccc(F)cc3)CC2)CC1=O (stereo not given) | inconclusive [inhibitor, single point] | 
CCC(=O)NC(=S)Nc1ccc(NC(=O)c2ccco2)c(Cl)c1 | active: 3.55 µM | 
O=C(N/N=C/c1cn(-c2ccccc2)nc1-c1cc2ccccc2o1)c1ccccc1Br | inconclusive [inhibitor, single point] | 
Fc1ccc(-c2csc(/C=C/c3ccc4c(c3)OCO4)n2)cc1 | inconclusive [inhibitor, single point] | 
Fc1ccc2[nH]c3c(N4CCN(Cc5ccc6c(c5)OCO6)CC4)ncnc3c2c1 | inconclusive [inhibitor, single point] | 
COc1ccccc1/C=N/n1c(N)c(S(=O)(=O)c2cccs2)c2nc3ccccc3nc21 | inconclusive [inhibitor, partial curve] | 
S=c1[nH]nc(-c2ccccn2)n1/N=C/c1ccc(-c2ccccc2Br)o1 | inconclusive [inhibitor, single point] | 
C/C(=N/NS(=O)(=O)c1ccc(F)cc1)c1ccc(NC(=O)c2ccc(C)o2)cc1 | inconclusive [inhibitor, single point] | 
O=C(CC1NC(=O)NC1=O)NC1(C(=O)NC2CCCCC2)CCCCC1 (stereo not given) | inconclusive [inhibitor, single point] | 
COC(=O)c1c(NC(=O)CN2CCOCC2)sc2c1CCC(C)C2 (stereo not given) | inconclusive [inhibitor, single point] | 
Cc1cccc(CNc2ncnc3ccc(-c4ccc5c(c4)OCO5)cc23)c1 | inconclusive [inhibitor, partial curve] | 
